# Some of the results follow.
# Molecular target: T1, OsWOX13 (Oryza sativa, UniProt Q5QMM3 1-267)
# T1 sequence: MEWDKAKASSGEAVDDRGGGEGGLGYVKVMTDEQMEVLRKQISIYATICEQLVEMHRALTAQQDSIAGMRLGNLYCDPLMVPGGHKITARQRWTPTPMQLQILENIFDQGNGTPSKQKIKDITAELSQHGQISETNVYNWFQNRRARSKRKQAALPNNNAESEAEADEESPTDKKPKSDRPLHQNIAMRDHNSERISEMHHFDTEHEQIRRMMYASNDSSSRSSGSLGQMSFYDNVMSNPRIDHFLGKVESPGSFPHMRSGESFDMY
# Test: protein-binding microarray (RPBM); PBS, 2% BSA, 51.3 ng/ul salmon testes DNA, 50 uM zinc acetate, 200 nM TF, 25 C, 1 h; high values mean tight binding
# Details: protein: recombinant; tags: N-terminal polyhistidine and DsRed monomer fusion (pET32a); label: CyDye5-dUTP incorporated in the synthesized complementary strand; 3' TTTTT single-stranded linker to array surface; dsDNA, one strand shown
# Method in brief: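 Transcription factors were each fused at the N-terminus to a polyhistidine tag plus DsRed and expressed in E. coli BL21-CodonPlus before Ni–NTA purification. Binding to a double-stranded custom Agilent array was carried out with 200 nM protein at 25 °C for 1 h in PBS, 2% BSA, salmon testes DNA and 50 µM zinc acetate. The binding signal is per-feature fluorescence intensity, in arbitrary units, on an Axon 4000B scanner.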
row,Sequence,binding signal
1,TTTTGTAATTACCACAACACCCAGAAGTCTAAACAGATAGCGGAGTCACCTAGTGCAG,13400 fluorescence intensity (a.u.)
2,CCACTGCCTCACCTCCTCTTTCCCCTCTTCCTGATCCAAACGGAGTCACCTAGTGCAG,3210 fluorescence intensity (a.u.)
3,ACCTTAATTGGAAGATTCCAATCGAATGATCAAACTCGTTCGGAGTCACCTAGTGCAG,41700 fluorescence intensity (a.u.)
4,GAGTAATTGACTAGAGTACGAGGAGTCAAGAGAATATCACCGGAGTCACCTAGTGCAG,26900 fluorescence intensity (a.u.)
5,ATAACAAATTGCAGCTTTAACATTTGCGTATCGTAGTACTCGGAGTCACCTAGTGCAG,10300 fluorescence intensity (a.u.)
6,GCGATCCAGATTACAATTACTAACTTGTGTCCTAATTAATCGGAGTCACCTAGTGCAG,3310 fluorescence intensity (a.u.)
7,TTTGATGGGAATTTGTTTCAGATATGCTTACGTGCACATACGGAGTCACCTAGTGCAG,13800 fluorescence intensity (a.u.)
8,AAGGAGAATTTTCTTGATTGAAATTATACATCATATTCATCGGAGTCACCTAGTGCAG,29500 fluorescence intensity (a.u.)
9,TAAATTGCCAACCATCATTTTCCAATTGGCCAACTGATGGCGGAGTCACCTAGTGCAG,5780 fluorescence intensity (a.u.)
10,AAATTTTAAATTTTAGTAAAATTTGTTCGGTCTTTCTCTCCGGAGTCACCTAGTGCAG,5920 fluorescence intensity (a.u.)
11,GCATGTGATTACAATTTCGTGTTCATATCAATAATAGTAGCGGAGTCACCTAGTGCAG,25400 fluorescence intensity (a.u.)
12,CCTTCATTCATTTCCTAATCCCAATCCCACCCTCCATTTCCGGAGTCACCTAGTGCAG,3570 fluorescence intensity (a.u.)
13,ATTAAACTCCATTCTAAAACTAGAATATAATTAGACAGAGCGGAGTCACCTAGTGCAG,3290 fluorescence intensity (a.u.)
14,CGGTTAGACAGAGCCTAATTAAGGAGGTCACTTGTTATACCGGAGTCACCTAGTGCAG,12700 fluorescence intensity (a.u.)
15,TTGAAATTAAATTAATTAGCACAAATTATGAAATTAACTACGGAGTCACCTAGTGCAG,45800 fluorescence intensity (a.u.)
16,TTAAATTAAAACTTTTAGCTGAACCAATGGCTACTGAGAACGGAGTCACCTAGTGCAG,3170 fluorescence intensity (a.u.)
17,ATTTTGTTGATTGCTGCAATCTCGTGCGGCGTAACAAGGTCGGAGTCACCTAGTGCAG,37300 fluorescence intensity (a.u.)
18,GGCACTAAATTAGTTTCATTAAATTTAACACTGAATATATCGGAGTCACCTAGTGCAG,24800 fluorescence intensity (a.u.)
19,TCAAATTTGTGCTGATTTATATGGAAAATTCTGTCAAGTGCGGAGTCACCTAGTGCAG,37600 fluorescence intensity (a.u.)
20,TGCTGATTTTCTGATGGACTCACGAAGTCGCACACGTACGCGGAGTCACCTAGTGCAG,32600 fluorescence intensity (a.u.)
21,ATGGCATGATTAATAATGGCTGTAGTGATAAACCGCATGGCGGAGTCACCTAGTGCAG,11600 fluorescence intensity (a.u.)
22,TGGCAGAATTTTAAACGATTGATAAATCTTCTTCTAAGCTCGGAGTCACCTAGTGCAG,4910 fluorescence intensity (a.u.)
23,TTCTTGCCACGATAATTGAATGGAACTTCCACATTCAGATCGGAGTCACCTAGTGCAG,20000 fluorescence intensity (a.u.)
24,ATAATAAATATATTTACATTTAGACCCTCGATGTGTCATCCGGAGTCACCTAGTGCAG,3230 fluorescence intensity (a.u.)
25,AACCAAACCAATCACGAGCGGATCAACACAGATCAAGCATCGGAGTCACCTAGTGCAG,12500 fluorescence intensity (a.u.)
26,AGTTCTTGATGATCAAATTTTGCTGGGTTGTTTAACCACTCGGAGTCACCTAGTGCAG,7260 fluorescence intensity (a.u.)
27,AATTACGCCATGATTTGATAATGTGATGCTATAGTAAACACGGAGTCACCTAGTGCAG,7330 fluorescence intensity (a.u.)

row,Sequence,binding signal
1,GGAAAATTGCAACCAAATCATCCTAATGCGTCATATTTTCCGGAGTCACCTAGTGCAG,3420 fluorescence intensity (a.u.)
2,TGTGCTAATCACAAATAATTATCACCTACTCCTAGCTCTGCGGAGTCACCTAGTGCAG,24400 fluorescence intensity (a.u.)
3,ATTGATAGATAGATAGATTTATGCAGCTCAAGTTTACACACGGAGTCACCTAGTGCAG,47600 fluorescence intensity (a.u.)
4,CTTGACTAGCTGACTGTTCTTACAAGTGACATCAGTCGAGCGGAGTCACCTAGTGCAG,7850 fluorescence intensity (a.u.)
5,AAAATTTAAATTTTCAGGCTTAAATTTGAAATTGATTTTACGGAGTCACCTAGTGCAG,7780 fluorescence intensity (a.u.)
6,CAATGACTGATTACTGTGTTGATAGAATTTCATATACATTCGGAGTCACCTAGTGCAG,34300 fluorescence intensity (a.u.)
7,TGGCTGCTGATTGCAACAGTGGTACTGACATTAGCAGCAGCGGAGTCACCTAGTGCAG,16300 fluorescence intensity (a.u.)
8,ATTTAAACTACCTTTTCATTGACACATGCACTCTCACCGACGGAGTCACCTAGTGCAG,3190 fluorescence intensity (a.u.)
9,ATATAATTTGCTTTAAAGTGAATATGTTATCACCGCAGATCGGAGTCACCTAGTGCAG,23700 fluorescence intensity (a.u.)
10,AGACAAGGTAATTACCTTCCAGATAAACATTTAGAAAGAACGGAGTCACCTAGTGCAG,5950 fluorescence intensity (a.u.)
11,AAGATAAATGACATACATACCCCTAATAATGCACTAGGATCGGAGTCACCTAGTGCAG,9380 fluorescence intensity (a.u.)
12,CCTCCGAATTGATATTTTGTTTTGAGAGATCTTGTTTACTCGGAGTCACCTAGTGCAG,6130 fluorescence intensity (a.u.)
13,ATTAATTAGCCTCCCACAACTCCTTAATTCCATCTCCTCTCGGAGTCACCTAGTGCAG,3510 fluorescence intensity (a.u.)
14,TGCCACACAAATTTTGCAAAATTTGTGATATGCCACCTGACGGAGTCACCTAGTGCAG,6080 fluorescence intensity (a.u.)
15,TTTCAATCCAAATCATTTTATTATTTCTACGCTATCTAATCGGAGTCACCTAGTGCAG,5440 fluorescence intensity (a.u.)
16,ACGAGATAACTATTTAACAAATTTGAAGTAAAATCATATTCGGAGTCACCTAGTGCAG,4870 fluorescence intensity (a.u.)
17,ATGGATTAATTAGGCTCAAAAGATTTGTCTCACTATTTCCCGGAGTCACCTAGTGCAG,13500 fluorescence intensity (a.u.)
18,AATAAGTAATACTCAATTAATTATGTACTAATGACTCATCCGGAGTCACCTAGTGCAG,13800 fluorescence intensity (a.u.)
19,ATCTGATTCGTGATTAATTAGTAATTAATTAATCTTTACTCGGAGTCACCTAGTGCAG,61000 fluorescence intensity (a.u.)
20,AGCAATTATTATCTAAAATGTTTTAGATCACATGCATCTGCGGAGTCACCTAGTGCAG,6500 fluorescence intensity (a.u.)
21,GGGGTGATGATGTATACTTAAAACCATTCTTGGAGGATGACGGAGTCACCTAGTGCAG,4430 fluorescence intensity (a.u.)
22,ATCGGTCGATTAATTTACTTGAGTAATGCCTTTTAGCCTCCGGAGTCACCTAGTGCAG,4620 fluorescence intensity (a.u.)
23,ATACTGTAACTGAGTACAAATTTATAACCCGCTTTTCCTCCGGAGTCACCTAGTGCAG,4710 fluorescence intensity (a.u.)
24,TGCACTAATTATCTGCATCGATCCAAACCTCAGCTATAAACGGAGTCACCTAGTGCAG,10100 fluorescence intensity (a.u.)
25,CAATTTCAGTTATCCATGTTTAACACAACTATTTACTCAGCGGAGTCACCTAGTGCAG,3320 fluorescence intensity (a.u.)
26,AGATGATTAATTGCACATTTGTTTGTTTTATGTTCGATTACGGAGTCACCTAGTGCAG,46900 fluorescence intensity (a.u.)
27,TGTATCCTAAACTATAATTTAGCGGTAAATTATTTCCAAACGGAGTCACCTAGTGCAG,8910 fluorescence intensity (a.u.)
